No constants are given. Whether binding was seen depends on the method and setting. Binding seen in cells or lysates may run through a third protein. Some entries that bind do so weakly or less than the wild type. Sequences can lack the tags named with a protein.

Amino acid sequences for entries named in this document (tags omitted). A change or cut given only in a name is not applied to a line headed by its entry. Residues count along the entry.
UniProt Q8TEP8: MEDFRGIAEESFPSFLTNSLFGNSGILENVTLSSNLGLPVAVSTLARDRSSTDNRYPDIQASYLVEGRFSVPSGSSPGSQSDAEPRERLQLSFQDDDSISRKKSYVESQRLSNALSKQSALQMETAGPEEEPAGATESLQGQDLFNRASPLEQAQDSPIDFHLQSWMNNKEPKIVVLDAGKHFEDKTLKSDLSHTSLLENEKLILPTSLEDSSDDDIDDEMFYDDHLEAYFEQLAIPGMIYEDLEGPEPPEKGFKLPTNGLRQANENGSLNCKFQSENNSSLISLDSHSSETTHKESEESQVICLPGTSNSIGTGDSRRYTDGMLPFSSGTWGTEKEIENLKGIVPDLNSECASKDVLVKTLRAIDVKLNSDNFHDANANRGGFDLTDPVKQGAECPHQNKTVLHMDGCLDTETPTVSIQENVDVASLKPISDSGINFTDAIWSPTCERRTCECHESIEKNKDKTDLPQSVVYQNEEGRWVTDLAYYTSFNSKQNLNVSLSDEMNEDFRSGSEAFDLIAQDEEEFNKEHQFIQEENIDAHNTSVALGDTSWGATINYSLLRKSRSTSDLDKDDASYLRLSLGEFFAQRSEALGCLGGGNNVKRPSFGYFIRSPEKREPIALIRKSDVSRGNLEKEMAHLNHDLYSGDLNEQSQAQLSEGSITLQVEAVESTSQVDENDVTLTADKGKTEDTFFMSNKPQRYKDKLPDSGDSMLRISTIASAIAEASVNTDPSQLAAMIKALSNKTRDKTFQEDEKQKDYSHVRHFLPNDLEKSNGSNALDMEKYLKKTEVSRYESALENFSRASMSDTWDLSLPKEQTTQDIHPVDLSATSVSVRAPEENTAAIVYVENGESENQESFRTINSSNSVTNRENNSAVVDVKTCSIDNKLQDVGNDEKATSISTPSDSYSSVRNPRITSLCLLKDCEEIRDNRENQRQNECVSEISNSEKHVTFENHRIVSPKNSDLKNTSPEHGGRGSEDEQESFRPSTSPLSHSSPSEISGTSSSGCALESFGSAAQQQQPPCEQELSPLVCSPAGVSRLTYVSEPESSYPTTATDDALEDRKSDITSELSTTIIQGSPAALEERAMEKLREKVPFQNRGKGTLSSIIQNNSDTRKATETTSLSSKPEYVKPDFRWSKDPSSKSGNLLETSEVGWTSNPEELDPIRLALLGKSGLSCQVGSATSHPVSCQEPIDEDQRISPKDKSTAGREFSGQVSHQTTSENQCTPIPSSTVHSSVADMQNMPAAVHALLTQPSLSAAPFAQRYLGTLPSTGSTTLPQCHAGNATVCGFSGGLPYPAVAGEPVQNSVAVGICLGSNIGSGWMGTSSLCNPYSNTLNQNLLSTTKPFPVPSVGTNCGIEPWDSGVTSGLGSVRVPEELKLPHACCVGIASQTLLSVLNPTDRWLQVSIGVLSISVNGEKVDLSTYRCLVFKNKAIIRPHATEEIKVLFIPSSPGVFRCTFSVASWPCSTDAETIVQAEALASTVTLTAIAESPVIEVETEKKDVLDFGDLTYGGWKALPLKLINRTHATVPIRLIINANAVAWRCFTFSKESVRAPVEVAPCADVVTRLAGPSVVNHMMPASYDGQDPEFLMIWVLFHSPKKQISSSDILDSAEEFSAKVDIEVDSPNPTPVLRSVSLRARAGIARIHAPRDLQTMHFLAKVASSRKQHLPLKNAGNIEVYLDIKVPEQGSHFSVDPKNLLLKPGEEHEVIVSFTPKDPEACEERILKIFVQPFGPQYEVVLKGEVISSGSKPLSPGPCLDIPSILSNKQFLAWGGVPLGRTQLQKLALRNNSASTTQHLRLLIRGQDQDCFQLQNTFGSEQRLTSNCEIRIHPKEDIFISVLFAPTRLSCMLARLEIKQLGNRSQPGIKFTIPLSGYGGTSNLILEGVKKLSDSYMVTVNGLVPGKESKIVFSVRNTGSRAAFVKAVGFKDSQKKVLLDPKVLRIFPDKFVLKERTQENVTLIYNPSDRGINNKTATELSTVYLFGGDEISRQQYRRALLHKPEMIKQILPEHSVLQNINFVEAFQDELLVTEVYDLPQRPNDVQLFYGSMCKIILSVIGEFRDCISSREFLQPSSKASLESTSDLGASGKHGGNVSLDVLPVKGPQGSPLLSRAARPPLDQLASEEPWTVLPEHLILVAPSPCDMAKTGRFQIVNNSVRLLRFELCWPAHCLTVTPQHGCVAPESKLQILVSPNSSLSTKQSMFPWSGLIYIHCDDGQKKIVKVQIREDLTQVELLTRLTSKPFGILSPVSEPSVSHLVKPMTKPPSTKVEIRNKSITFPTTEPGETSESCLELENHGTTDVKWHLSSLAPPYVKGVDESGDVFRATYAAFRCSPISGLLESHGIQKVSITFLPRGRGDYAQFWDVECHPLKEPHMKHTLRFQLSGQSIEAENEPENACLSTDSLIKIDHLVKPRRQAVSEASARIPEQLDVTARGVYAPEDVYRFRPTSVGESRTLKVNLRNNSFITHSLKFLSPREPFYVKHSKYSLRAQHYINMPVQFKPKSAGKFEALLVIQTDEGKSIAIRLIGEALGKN
UniProt P53350: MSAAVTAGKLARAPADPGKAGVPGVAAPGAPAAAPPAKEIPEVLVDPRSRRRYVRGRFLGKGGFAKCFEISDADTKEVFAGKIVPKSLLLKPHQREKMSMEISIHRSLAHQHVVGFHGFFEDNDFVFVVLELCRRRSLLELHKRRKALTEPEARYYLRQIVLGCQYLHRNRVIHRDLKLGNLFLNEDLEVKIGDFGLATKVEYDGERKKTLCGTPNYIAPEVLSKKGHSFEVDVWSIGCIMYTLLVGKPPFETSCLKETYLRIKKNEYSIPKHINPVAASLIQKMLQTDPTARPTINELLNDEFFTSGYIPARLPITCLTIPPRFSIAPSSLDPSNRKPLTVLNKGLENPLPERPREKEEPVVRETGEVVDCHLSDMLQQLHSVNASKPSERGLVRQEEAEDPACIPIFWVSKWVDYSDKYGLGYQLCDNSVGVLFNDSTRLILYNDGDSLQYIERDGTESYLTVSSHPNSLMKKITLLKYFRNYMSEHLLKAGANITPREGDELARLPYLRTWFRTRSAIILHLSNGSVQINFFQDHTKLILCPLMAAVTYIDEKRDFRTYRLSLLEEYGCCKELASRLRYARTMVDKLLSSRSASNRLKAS
GFP-PLK1 C-terminus (311–603 aa): residues 311-603 of P53350
UniProt O94986: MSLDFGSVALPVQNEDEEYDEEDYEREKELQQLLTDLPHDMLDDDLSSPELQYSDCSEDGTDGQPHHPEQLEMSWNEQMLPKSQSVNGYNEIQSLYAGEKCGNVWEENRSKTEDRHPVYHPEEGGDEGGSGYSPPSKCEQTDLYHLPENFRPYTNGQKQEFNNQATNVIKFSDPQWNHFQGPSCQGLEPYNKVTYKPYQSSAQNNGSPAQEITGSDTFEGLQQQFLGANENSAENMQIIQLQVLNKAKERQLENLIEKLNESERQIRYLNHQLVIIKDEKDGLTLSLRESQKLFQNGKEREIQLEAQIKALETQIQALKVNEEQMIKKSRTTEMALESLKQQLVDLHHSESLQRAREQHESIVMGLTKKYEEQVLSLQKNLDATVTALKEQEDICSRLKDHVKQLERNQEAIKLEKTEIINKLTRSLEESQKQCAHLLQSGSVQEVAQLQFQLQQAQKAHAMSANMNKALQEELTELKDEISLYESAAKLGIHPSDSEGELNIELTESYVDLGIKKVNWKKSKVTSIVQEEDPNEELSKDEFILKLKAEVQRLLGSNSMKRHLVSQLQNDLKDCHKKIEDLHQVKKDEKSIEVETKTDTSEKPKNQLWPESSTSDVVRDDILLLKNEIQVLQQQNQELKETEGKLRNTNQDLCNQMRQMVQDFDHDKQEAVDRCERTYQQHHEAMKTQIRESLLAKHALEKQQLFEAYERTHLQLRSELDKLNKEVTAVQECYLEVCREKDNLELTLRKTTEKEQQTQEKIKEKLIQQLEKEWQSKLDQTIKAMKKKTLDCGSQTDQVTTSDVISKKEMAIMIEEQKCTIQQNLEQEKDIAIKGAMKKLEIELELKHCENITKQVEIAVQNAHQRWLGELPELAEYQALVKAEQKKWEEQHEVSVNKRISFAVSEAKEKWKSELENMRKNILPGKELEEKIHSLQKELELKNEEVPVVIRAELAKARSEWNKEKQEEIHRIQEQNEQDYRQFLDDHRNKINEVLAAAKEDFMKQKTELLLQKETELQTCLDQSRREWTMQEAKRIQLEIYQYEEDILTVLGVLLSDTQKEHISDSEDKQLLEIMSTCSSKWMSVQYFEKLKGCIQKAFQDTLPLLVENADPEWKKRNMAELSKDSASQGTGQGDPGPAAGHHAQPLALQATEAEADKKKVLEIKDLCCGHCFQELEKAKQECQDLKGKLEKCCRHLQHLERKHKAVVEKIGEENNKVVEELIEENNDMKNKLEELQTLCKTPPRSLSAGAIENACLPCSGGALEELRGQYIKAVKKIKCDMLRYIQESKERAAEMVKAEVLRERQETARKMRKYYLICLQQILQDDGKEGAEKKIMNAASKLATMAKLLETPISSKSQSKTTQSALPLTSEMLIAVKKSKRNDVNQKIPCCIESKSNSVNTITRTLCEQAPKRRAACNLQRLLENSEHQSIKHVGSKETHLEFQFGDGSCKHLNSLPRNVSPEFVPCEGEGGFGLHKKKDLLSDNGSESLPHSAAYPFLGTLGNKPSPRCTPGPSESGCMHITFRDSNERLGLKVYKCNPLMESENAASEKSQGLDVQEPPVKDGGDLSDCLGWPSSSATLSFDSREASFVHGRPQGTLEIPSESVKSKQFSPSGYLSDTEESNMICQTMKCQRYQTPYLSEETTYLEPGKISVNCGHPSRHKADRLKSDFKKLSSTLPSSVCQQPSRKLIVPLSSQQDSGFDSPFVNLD

The target in test [1] is Cep192 (endogenous, HEK293T) (human (endogenous in HEK293T)) (UniProt Q8TEP8). The test is described as follows: co-IP; lysates of HEK293T cells overexpressing 3×FLAG-TUFT1 only; partners blotted with their own antibodies; lysis buffer 150 mM NaCl, 50 mM HEPES, 1 mM MgCl2, 1 mM EGTA, 0.5% Triton X-100, pH 7.4; protein G-Sepharose, 4 °C.
For test [2], the target named is PLK1 (endogenous, HEK293T) (human (endogenous in HEK293T)) (UniProt P53350). The test is described as above.
Test [3] deals with Cep152 (endogenous, HEK293T) (human (endogenous in HEK293T)) (UniProt O94986). The test is described as above.
For test [4], the target named is T1, PLK4 (endogenous, HEK293T) (human (endogenous in HEK293T)) (UniProt O00444).
T1 sequence: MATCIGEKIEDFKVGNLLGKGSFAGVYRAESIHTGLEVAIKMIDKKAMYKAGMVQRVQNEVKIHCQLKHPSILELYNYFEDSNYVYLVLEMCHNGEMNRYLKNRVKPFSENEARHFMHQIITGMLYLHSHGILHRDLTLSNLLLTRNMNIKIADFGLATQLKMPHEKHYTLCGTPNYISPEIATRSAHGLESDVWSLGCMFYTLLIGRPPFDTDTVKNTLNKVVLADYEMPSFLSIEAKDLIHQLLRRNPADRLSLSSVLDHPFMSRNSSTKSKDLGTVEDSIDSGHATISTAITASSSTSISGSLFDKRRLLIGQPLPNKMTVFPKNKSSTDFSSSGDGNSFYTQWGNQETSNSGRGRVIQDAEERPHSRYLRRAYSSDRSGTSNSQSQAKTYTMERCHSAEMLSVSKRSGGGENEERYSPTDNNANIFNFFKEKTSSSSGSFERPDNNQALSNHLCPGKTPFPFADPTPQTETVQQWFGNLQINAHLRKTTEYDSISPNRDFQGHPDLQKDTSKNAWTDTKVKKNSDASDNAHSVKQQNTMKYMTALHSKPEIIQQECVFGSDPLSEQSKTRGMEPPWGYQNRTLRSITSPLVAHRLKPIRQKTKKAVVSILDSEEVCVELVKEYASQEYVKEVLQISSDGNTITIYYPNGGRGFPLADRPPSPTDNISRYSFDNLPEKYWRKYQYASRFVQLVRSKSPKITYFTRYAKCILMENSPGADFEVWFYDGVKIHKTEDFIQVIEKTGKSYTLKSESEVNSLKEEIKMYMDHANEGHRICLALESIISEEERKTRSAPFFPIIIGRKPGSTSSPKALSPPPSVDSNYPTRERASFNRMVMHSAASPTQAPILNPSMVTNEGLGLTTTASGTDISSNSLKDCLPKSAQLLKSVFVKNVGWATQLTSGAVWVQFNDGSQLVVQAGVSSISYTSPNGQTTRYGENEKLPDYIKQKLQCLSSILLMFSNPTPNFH
The description is as above.

The target in test [5] is T2, SAS-6 (endogenous, HEK293T) (human (endogenous in HEK293T)) (UniProt Q6UVJ0).
T2 sequence: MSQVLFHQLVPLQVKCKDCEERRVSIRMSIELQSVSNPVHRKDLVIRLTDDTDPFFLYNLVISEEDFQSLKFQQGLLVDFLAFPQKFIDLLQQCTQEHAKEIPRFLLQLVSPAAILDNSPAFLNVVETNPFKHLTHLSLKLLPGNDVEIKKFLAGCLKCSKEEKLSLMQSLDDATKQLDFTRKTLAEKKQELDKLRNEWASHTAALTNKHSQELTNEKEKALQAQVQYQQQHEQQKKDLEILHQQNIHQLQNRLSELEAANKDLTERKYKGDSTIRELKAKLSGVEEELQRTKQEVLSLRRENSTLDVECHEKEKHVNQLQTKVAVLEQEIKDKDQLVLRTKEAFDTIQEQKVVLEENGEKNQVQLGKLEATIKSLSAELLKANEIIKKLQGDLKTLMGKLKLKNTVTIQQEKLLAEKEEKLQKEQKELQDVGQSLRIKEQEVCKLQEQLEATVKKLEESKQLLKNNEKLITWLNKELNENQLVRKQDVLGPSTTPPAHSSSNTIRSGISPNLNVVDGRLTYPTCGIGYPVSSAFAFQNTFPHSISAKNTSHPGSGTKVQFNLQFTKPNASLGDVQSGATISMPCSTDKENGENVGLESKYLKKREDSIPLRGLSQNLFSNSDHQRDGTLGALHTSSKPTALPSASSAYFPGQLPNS
The description is as above.

Test [6] addresses GFP-PLK1 C-terminus (311–603 aa) (human) (UniProt P53350). The test is described as follows: co-IP; lysates of HEK293T cells overexpressing both tagged proteins; lysis buffer 150 mM NaCl, 50 mM HEPES, 1 mM MgCl2, 1 mM EGTA, 0.5% Triton X-100, pH 7.4; antibodies and protein G-Sepharose, 4 °C, 4 h or overnight; immunoblotting. (In western blotting, separated proteins are transferred to a membrane and probed.)

Another test addresses C-Nap1-GFP (human) (UniProt Q9BV73). The description is as above.
For the next test, the target named is GFP-PLK1 (FL) (human) (UniProt P53350). Described as above.

B1: 3×FLAG-TUFT1 (full-length, FL; WT) (protein, UniProt Q9NNX1-1 1-390)
chain: MNGTRNWCTLVDVHPEDQAAGSVDILRLTLQGELTGDELEHIAQKAGRKTYAMVSSHSAGHSLASELVESHDGHEEIIKVYLKGRSGDKMIHEKNINQLKSEVQYIQEARNCLQKLREDISSKLDRNLGDSLHRQEIQVVLEKPNGFSQSPTALYSSPPEVDTCINEDVESLRKTVQDLLAKLQEAKRQHQSDCVAFEVTLSRYQREAEQSNVALQREEDRVEQKEAEVGELQRRLLGMETEHQALLAKVREGEVALEELRSNNADCQAEREKAATLEKEVAGLREKIHHLDDMLKSQQRKVRQMIEQLQNSKAVIQSKDATIQELKEKIAYLEAENLEMHDRMEHLIEKQISHGNFSTQARAKTENPGSIRISKPPSPKPMPVIRVVET
Take B1: the binding result in test [1] is on record as “no binding”; in test [2], “binds”; in test [3], “no binding”; in test [4], “no binding”; in test [5], “no binding”; in test [6] it was “binds”. In addition, the binding result in the test with C-Nap1-GFP (human) and in the test with GFP-PLK1 (FL) (human) was “binds” each time.

The values above are taken from PMC12480466.
